# Laboratory results taken from the supplement of paper PMC4604168 (melanoma cell lines).
# This is one part of the list. Single values are uncertain, as repeats are few or missing.
# Assays:
# Experiment in all cases: cell count relative to DMSO control; melanoma cells; higher = more viable cells
# Settings in all cases: library dose: standard library concentration; 72 h
# SkMel28 = test system: SkMel28
# SkMel2 = test system: SkMel2
# SkMel30 = test system: SkMel30
# SkMel5 = test system: SkMel5
# UACC257 = test system: UACC257
# UACC62 = test system: UACC62
# WM115 = test system: WM115
# WM1716 = test system: WM1716
# WM1745 = test system: WM1745
# WM3526 = test system: WM3526
# 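Note: cells treated in 1,536-well plates, then fixed and DAPI-stained, with nuclei counted from automated high-throughput microscope images.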
SMILES,cell count (SkMel28) [%],cell count (SkMel2) [%],cell count (SkMel30) [%],cell count (SkMel5) [%],cell count (UACC257) [%],cell count (UACC62) [%],cell count (WM115) [%],cell count (WM1716) [%],cell count (WM1745) [%],cell count (WM3526) [%]
"Clc1ccc(Nc2nnc(Cc3ccncc3)c3ccccc23)cc1 [vatalanib] + COCC[n+]1c2c(n(Cc3cnccn3)c1C)C(=O)c1ccccc1C2=O [YM155] (first compound 10 µM, partner dose 0.002 µM)",91.3,88.7,105,66,77.6,72.7,116,83.5,62.2,86.9
"Clc1ccc(Nc2nnc(Cc3ccncc3)c3ccccc23)cc1 [vatalanib] + Cc1cc([N+](=O)[O-])ccc1NS(=O)(=O)c1cc(Cl)ccc1Cl [FH535] (first compound 10 µM, partner dose 5 µM)",53.5,70.1,89.8,55.5,58.7,112,89.7,85.8,,88.3
"OCc1c[nH]c2ccccc12 [Indole-3-carbinol] + Nc1cccc2c1CN(C1CCC(=O)NC1=O)C2=O [lenalidomide] (first compound 4 µM, partner dose 5 µM)",74.1,98.9,91.7,87.3,97.5,69.2,105,99.2,67.2,77.5
"COCC[n+]1c2c(n(Cc3cnccn3)c1C)C(=O)c1ccccc1C2=O + O=C1NC(=O)/C(=C/c2ccc(-c3ccc(F)cc3O)o2)S1 [AS252424] (first compound 0.002 µM, partner dose 5 µM)",88.2,83.3,90.5,75.4,76.1,87.6,91.8,95.9,125,82.8
"COCC[n+]1c2c(n(Cc3cnccn3)c1C)C(=O)c1ccccc1C2=O + COC(=O)c1sccc1S(=O)(=O)Nc1ccc(Nc2ccccc2)cc1OC [GSK0660] (first compound 0.002 µM, partner dose 5 µM)",81.1,63.2,87.7,62.4,41,91.9,67.5,75.9,83.4,77.3
"O=C(CCCCCCC(=O)Nc1ccccc1)NO [vorinostat] + c1cc(-c2cnn3cc(-c4ccc(OCCN5CCCCC5)cc4)cnc23)ccn1 [Dorsomorphin] (first compound 0.4 µM, partner dose 2 µM)",42.3,76.2,67.8,52.6,57,47.7,55.1,86.3,61.9,66.9
"C#Cc1cccc(Nc2ncnc3cc(OCCOC)c(OCCOC)cc23)c1 [erlotinib] + CC(C)CCN1c2nc(Nc3cc(F)c(O)c(F)c3)ncc2N(C)C(=O)C1C [BID1870] (first compound 4 µM, partner dose 1 µM)",53.1,68.7,74,59.9,82.3,55.5,75,59.9,45.1,61.3
"C#Cc1cccc(Nc2ncnc3cc(OCCOC)c(OCCOC)cc23)c1 [erlotinib] + O=C(O)c1ccc(-c2c[nH]c3ncc(-c4ccccc4)cc23)cc1C1CCCC1 [GSK650394] (first compound 4 µM, partner dose 0.8 µM)",44.1,79.5,77.4,54.7,80.1,85.5,66.2,79.2,67.7,64.3
"OCc1c[nH]c2ccccc12 [Indole-3-carbinol] + Clc1ccc(Nc2nnc(Cc3ccncc3)c3ccccc23)cc1 [vatalanib] (first compound 4 µM, partner dose 10 µM)",88.6,88.5,96.6,53.8,72,81.4,78.2,91.8,65.4,84.2
"Cn1c(Nc2ccc(C(F)(F)F)cc2)nc2cc(Oc3ccnc(-c4ncc(C(F)(F)F)[nH]4)c3)ccc21 + OCCn1cc(-c2cnc3nnn(Cc4ccc5ncccc5c4)c3n2)cn1 [PF04217903] (first compound 0.4 µM, partner dose 5 µM)",51.2,61.9,74.6,37.9,71.8,65.4,58.5,77.6,68.6,45.6
"OCc1c[nH]c2ccccc12 [Indole-3-carbinol] + OCCn1cc(-c2cnc3nnn(Cc4ccc5ncccc5c4)c3n2)cn1 [PF04217903] (first compound 4 µM, partner dose 5 µM)",115,86.6,99.5,91.3,89.4,95.3,117,88,78.3,94.8
"Nc1cccc2c1CN(C1CCC(=O)NC1=O)C2=O (centres undefined) [lenalidomide] + c1cc(-c2cnn3cc(-c4ccc(OCCN5CCCCC5)cc4)cnc23)ccn1 [Dorsomorphin] (first compound 5 µM, partner dose 2 µM)",96.4,89.5,109,72.2,82.7,75.6,62.3,83.7,60.4,91.1
